# According to PMC4336329 (PLoS ONE, 2015):
# In all, about 310,000 compounds went through this assay and about 2,200 (0.71%) showed an effect of 50% or more. Effects have a minus sign here. The list shows a part of the results.
# Molecular target: human ether-à-go-go-related gene (hERG) potassium channel (human, UniProt Q12809)
# Assay: primary screen, population patch clamp on CHO cells stably expressing hERG
# human ether-à-go-go-related gene (hERG) potassium channel, sequence (Q12809 whole entry, looked up): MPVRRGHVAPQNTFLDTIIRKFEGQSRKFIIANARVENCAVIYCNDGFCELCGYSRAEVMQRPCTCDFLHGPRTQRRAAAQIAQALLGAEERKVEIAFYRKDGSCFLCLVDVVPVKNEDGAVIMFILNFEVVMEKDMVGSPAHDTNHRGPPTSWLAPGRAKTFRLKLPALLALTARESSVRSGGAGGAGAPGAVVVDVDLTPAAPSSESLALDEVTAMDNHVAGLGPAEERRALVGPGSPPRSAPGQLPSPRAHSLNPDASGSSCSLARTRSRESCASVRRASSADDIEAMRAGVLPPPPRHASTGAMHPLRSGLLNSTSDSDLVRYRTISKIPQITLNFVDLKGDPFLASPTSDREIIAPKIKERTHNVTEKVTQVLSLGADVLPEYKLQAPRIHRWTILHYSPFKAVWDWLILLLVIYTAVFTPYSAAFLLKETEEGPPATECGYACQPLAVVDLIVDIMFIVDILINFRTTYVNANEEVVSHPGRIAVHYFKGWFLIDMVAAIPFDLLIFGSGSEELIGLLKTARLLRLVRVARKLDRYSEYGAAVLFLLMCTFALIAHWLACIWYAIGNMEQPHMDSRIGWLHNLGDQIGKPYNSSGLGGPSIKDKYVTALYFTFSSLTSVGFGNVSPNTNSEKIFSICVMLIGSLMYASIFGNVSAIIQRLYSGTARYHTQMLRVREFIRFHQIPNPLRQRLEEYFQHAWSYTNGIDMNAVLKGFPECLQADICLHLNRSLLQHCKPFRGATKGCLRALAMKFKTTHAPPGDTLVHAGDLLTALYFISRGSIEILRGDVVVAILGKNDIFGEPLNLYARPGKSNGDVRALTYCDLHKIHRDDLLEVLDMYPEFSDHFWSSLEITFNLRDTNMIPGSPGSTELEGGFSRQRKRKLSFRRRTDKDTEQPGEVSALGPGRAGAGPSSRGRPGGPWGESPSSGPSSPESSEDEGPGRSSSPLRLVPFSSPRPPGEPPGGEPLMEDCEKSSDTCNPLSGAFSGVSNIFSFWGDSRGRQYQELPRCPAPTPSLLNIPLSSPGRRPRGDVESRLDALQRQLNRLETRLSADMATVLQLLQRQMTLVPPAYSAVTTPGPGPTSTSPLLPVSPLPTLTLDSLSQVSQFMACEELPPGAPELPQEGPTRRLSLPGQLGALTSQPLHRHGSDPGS
row,SMILES,"hERG current change (%, negative = inhibition) at 1uM [%]"
1,CC(C)CN(CC(C)C)S(=O)(=O)N1CCC(C(=O)N2CCc3ccccc3C2)CC1,11.8
2,CCC(C(=O)OCC(=O)N(CCOC)c1c(N)n(Cc2ccccc2)c(=O)[nH]c1=O)c1ccccc1 (stereo not drawn),11.1
3,O=C(NC(Cc1c[nH]c2ccccc12)c1nnc2n1CCCCC2)c1ccccc1 (stereo not drawn),14.6
4,Cc1nc(N)nc(N/N=C/c2c(F)cccc2Cl)n1,11.4
5,CC1=NN(Cc2cc(C(C)(C)C)c(O)c(C(C)(C)C)c2)C(=O)C1,19.1
6,Cc1nn(C(C)C(=O)NCCN2CCCC2)c(=O)c2c1sc1ccccc12 (stereo not drawn),10.5
7,CCCc1nc(SCC(=O)N2CCCCCC2)c2c(=O)n(C)c(=O)n(C)c2n1,-3.28
8,O=C(CCc1ccccc1)NNC(=O)Nc1cccc(Cl)c1,3.21
9,O=C(Nc1cccnc1)c1ccc(Cl)c([N+](=O)[O-])c1,12.2
10,COc1ccc(C(C(=O)NC2CCCC2)N(Cc2ccc(C)cc2)C(=O)c2ccn[nH]2)cc1OC (stereo not drawn),8.51
11,CCOC(=O)c1cc(CC)sc1NC(=O)c1cc(OC)c(OC)c(OC)c1,12.4
12,N#CCC(=O)NCCCc1ccccc1,8.55
13,O=C(Cc1ccccc1)NN1C(=O)C2C3C=CC([C@@H]2C1=O)C31CC1 (stereo partly drawn),8.6
14,Cc1ccc(C)c(C(=O)N(C)CC(=O)Nc2ccccc2C(F)(F)F)c1,-0.294
15,CC(C)NS(=O)(=O)c1ccc(OCC(=O)N2CCN(Cc3ccccc3)CC2)cc1,9.08
16,Cc1ccc(-n2c(SCC(=O)NCC3CCCO3)nc3n[nH]c(C)c3c2=N)cc1Cl (stereo not drawn),3.14
17,CCOC(=O)C(O)(c1cn(C)c2ccccc12)C(F)(F)F (stereo not drawn),15.8
18,Cc1ccc(/C(O)=C2/C(=O)C(=O)N(CCN3CCOCC3)C2c2ccccn2)cc1 (stereo not drawn),15.7
19,CC(=O)c1ccc2c3c(cccc13)C(=O)N(c1c(C)nn(C)c1C)C2=O,12.6
20,CC(=O)c1ccc(N2C(=NC(=O)C3CCCCC3)SC3CS(=O)(=O)CC32)cc1 (stereo not drawn),13.1
21,CN(C)C=O.CNc1nc2[nH]c(=O)c3c(c2s1)OC(N)=C(C#N)C3c1ccccc1 (stereo not drawn),7.98
22,COc1ccc(Cl)cc1S(=O)(=O)N1CCN(CC(=O)C(C)(C)C)CC1,6.11

row,SMILES,"hERG current change (%, negative = inhibition) at 1uM [%]"
1,CC(=O)NCCNC(=O)c1ccc(CSc2ccc(Cl)cc2)cc1,2
2,CCOC(=O)c1c(C)[nH]c(C)c1C(=O)COc1ccc(NC(=O)c2ccco2)cc1,10.9
3,CC(=O)c1cc2c(cc1N/C(=N/S(=O)(=O)c1ccc(C)cc1)c1ccccc1)OCO2,13.4
4,O=C(Nc1ccc(F)cc1)C(c1ccccc1)N1CCN(CC(=O)N2CCCC2)CC1 (stereo not drawn),-45.5
5,CC(=O)N1CCN(CC(=O)NC(=O)Nc2ccc3c(c2)OCCO3)CC1,8.03
6,CC(C)(C)c1ccc(C(=O)NCC(=O)OCc2ccc([N+](=O)[O-])cc2)cc1,-3.27
7,C#CCOCCOCCOCCNc1nc(N2CCN(C(=O)[C@H]([C@@H](C)O)n3cc(CCCC[NH3+])nn3)CC2)nc(N2CCN(C(=O)[C@H](CCCC[NH3+])n3cc(CCCC)nn3)CC2)n1.[Cl-],14.3
8,COc1cc(NS(=O)(=O)c2ccc3c(c2)n(C)c(=O)n3C)cc(OC)c1,5.69
9,O=C(COC(=O)/C=C/C(=O)OCC(=O)NC12CC3CC(CC(C3)C1)C2)NC12CC3CC(CC(C3)C1)C2,17
10,CC[C@H](C)[C@H](NC(N)=O)C(=O)NCCc1ccc(OC)c(OC)c1,9.44
11,Cc1cc(C(=O)COC(=O)c2ccco2)c(C)n1Cc1ccco1,11.7
12,CCCCOC(=O)Nc1ccc(S(=O)(=O)Nc2nc(C)cc(C)n2)cc1,13.5
13,COCC(=O)N(Cc1cc2ccccc2[nH]c1=O)c1ccccc1OC,11
14,CS(=O)(=O)Cc1ccc(C(=O)N2CCCC2c2cccs2)cc1 (stereo not drawn),13.7
15,COc1ccc(NC(=O)CCNC(=O)c2ccccc2Cl)cc1OC,-1.1
16,NS(=O)(=O)c1ccc(NC(=O)CSc2nnc(-c3cnccn3)n2-c2ccccc2)cc1,8.31
17,Nc1ccccc1N1CCOCC1,10.4
18,O=[N+]([O-])c1ccc2[nH]c(O)c(N=NC(=S)NCC3CCCO3)c2c1 (stereo not drawn),5.35
19,Nc1ccc(Sc2cc(Cl)nc(N)n2)cc1,5.49
20,Oc1oc(-c2ccc(Br)cc2)nc1C=Nc1ccc(Br)cn1,9.89
21,CCOc1ccc(NC(=O)CN2C(=O)C3CCCN3C2=O)cc1 (stereo not drawn),7.85
22,CCOP(=O)(OCC)C(Nc1cc(Cl)cc(Cl)c1)c1cccc(O)c1 (stereo not drawn),7.45

row,SMILES,"hERG current change (%, negative = inhibition) at 1uM [%]"
1,O=C(NCCC1=CCCCC1)c1cccc(S(=O)(=O)N2CCCCC2)c1,-3.33
2,COC(=O)c1sc2ncccc2c1OCc1ccc(Cl)cc1Cl,2.33
3,CCn1cc(CNC(=O)c2c(-c3c(Cl)cccc3Cl)noc2C)c(C)n1,8.31
4,CC(C)N(C)S(=O)(=O)c1ccc(NC(=O)C2=COCCO2)cc1,12.9
5,CN(CC(=O)Nc1ccc(Cl)c(Cl)c1)C(=O)C12CC3CC(CC(C3)C1)C2,7.66
6,O=C(NC1CCNCC1)C1CCCCC1,10.4
7,Cc1ccc(NC2CCCN(C(=O)c3cn4cccc(C)c4n3)C2)cc1C (stereo not drawn),1.16
8,NN(CCO)C(=S)Nc1ccc(Cl)cc1,10.7
9,COc1ccccc1-c1cc(-c2ccccc2)nc(SCC(=O)O)c1C#N,14.8
10,C[C@H]1CN=C(N(C)C)N1CCc1ccc(F)cc1,3.31
11,CC(C)c1ccc(C(C)NCCS(=O)(=O)c2ccc(Br)cc2)cc1 (stereo not drawn),14.7
12,COc1ccc(C(=O)CSc2nnc(CNc3ccc(C)cc3C)o2)cc1,10.2
13,Cc1c(NS(=O)(=O)c2ccc3c(c2)NC(=O)CC(=O)N3)cccc1[N+](=O)[O-],16.1
14,O=C(O)c1cc(S(=O)(=O)N2CCCCC2)ccc1N1CCCCC1,5.64
15,O=C(Nc1cccc(-c2ccc(F)cc2)c1)C1CCCN(Cc2cccnc2)C1 (stereo not drawn),6.67
16,Cc1ccc(/C=C/C(=O)NCc2cccs2)c(C)c1,13.7
17,Cl.O=C(O)C1CCN(Cc2cccnc2)CC1,14.1
18,COc1ccccc1N1CCN(C(CNC(=O)C2CCCCC2)c2cccnc2)CC1 (stereo not drawn),5.78
19,COc1ccc(C2SCCN2S(=O)(=O)c2ccccc2)cc1OC (stereo not drawn),11
20,O=C(Nc1cc2c(cc1Cl)OCCCO2)c1ccc(F)cc1,6.35
21,CCC(C)c1ccc(NC(=O)NCc2cccnc2)cc1 (stereo not drawn),2.16
22,O=C(O)C(=O)O.O=C(c1ccccc1)c1ccc(OCCCN2CCCCC2)cc1,-30.4

row,SMILES,"hERG current change (%, negative = inhibition) at 1uM [%]"
1,CCNC(=O)C(C)Oc1ccc(Cl)cc1Cl (stereo not drawn),12.3
2,Cc1ccc(S(=O)(=O)N(CC(=O)N/N=C/c2cccc(Cl)c2)c2cccc3cccnc23)cc1,2.6
3,O=C(CCn1cccc1)NCCc1ccc(Cl)cc1,13.7
4,Cc1ccc(S(=O)(=O)Cn2nnnc2C(C)N2CCN(C(=O)c3ccco3)CC2)cc1 (stereo not drawn),-9.64
5,O=C(CCCC(=O)N(CC(=O)NC1CCCC1)Cc1ccccc1)Nc1ccccn1,4.48
6,O=C(CCN1C(=O)/C(=C/c2ccccc2Cl)SC1=S)Nc1ccccn1,5.66
7,CCCC(=O)NC(c1cccs1)c1cc(Cl)c2cccnc2c1O (stereo not drawn),3.81
8,Cc1cccc(-n2cnc(C(=O)NC3CCCCCC3)c2)n1,3.68
9,O=C(O)c1cccc(-n2cccc2/C=C2/NC(=O)N(c3cccc(Cl)c3)C2=O)c1,5.88
10,O=C(Nc1ccn(Cc2ccc(F)cc2)n1)c1ccncc1,21.1
11,CC1CCC(NC(=O)COC(=O)c2n[nH]c(=O)c3ccccc23)CC1 (stereo not drawn),-1.34
12,C/C(=C/C(=O)N1CCN(C)CC1)C(=O)O,5.2
13,O=C(Nc1ccc2c(c1)OCCO2)NC1CCCCC1,-1.47
14,CNC(=O)c1cc(Cl)c(OC)c(OC)c1,12.2
15,FC(F)(F)c1nnc(N2CCN(c3ccc(Cl)cc3)CC2)s1,13
16,COc1ccc(Cl)cc1NC(=O)CN(C)C(=O)c1cc2c(F)cccc2s1,7.74
17,Cc1ccc2c(c1)nnn2C1CCN(S(=O)(=O)c2ccc(C(=O)O)cc2)CC1,13.1
18,CCOC(=O)C1CCN(CCC(=O)Nc2cccc(Cl)c2C)CC1,4.5
19,CC(c1nccs1)N(C)c1nc2nonc2nc1N(C)C (stereo not drawn),6.15
20,CCN(CC)S(=O)(=O)c1ccc(N/N=C/c2cccnc2)nc1,-2.46
21,CC(=O)n1cc([C@H]2C=C(C(=O)N3CCN(Cc4ccc5c(c4)OCO5)CC3)O[C@@H](OCCCCO)C2)c2ccccc21,-1.56
